Data taken from patent publication US20240059769A1 (BIOLOJIC DESIGN, published 2024).

Assays:
anti-IL-13 control = biological target: T1, anti-IL-13 control; experiment: competition ELISA: 20 nM antibody pre-incubated with soluble hIL-13 (0.78-200 nM), then on a plate coated with hIL-13; bound IgG detected with anti-human Fc-HRP
T1 construct: also called anti-IL-13 control antibody

BDG33.023 = biological target: T2, BDG33.023; experiment: as above
T2 construct: standard IgG; also called BGD33.023; BDG33.0023

[1] = biological target: IL-13R/IL-4R receptor complex (human, UniProt P78552 22-427; P24394 26-825); experiment: cell-based or functional assay

T2 sequence (VH, as listed by the source, chain 1 of 2): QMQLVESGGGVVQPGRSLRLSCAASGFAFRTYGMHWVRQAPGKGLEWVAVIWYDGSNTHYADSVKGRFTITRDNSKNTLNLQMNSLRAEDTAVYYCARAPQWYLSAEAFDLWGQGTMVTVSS
T2 sequence (VL, as listed by the source, chain 2 of 2): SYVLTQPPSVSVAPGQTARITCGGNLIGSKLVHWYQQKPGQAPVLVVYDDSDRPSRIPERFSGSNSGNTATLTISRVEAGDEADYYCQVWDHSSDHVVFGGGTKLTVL

B1: recombinant human IL-13 (ligand)
chain: not shown
notes: also called rh-IL-13; hIL-13
anti-IL-13 control
  IC50 (read off the curve): ~10 nM
BDG33.023
  IC50 (read off the curve): ~20 nM
[1]
  EC50, HEK-Blue IL-4/IL-13 reporter (SEAP): ~0.12 nM
